In assay [1] the target is coiled-coil domain-containing protein 78 (CCDC78), wild type, of healthy control muscle (human (endogenous in muscle tissue)) (UniProt A2IDD5). The experiment in a line: co-IP; muscle tissue lysate precipitated with anti-CCDC78 cross-linked to magnetic beads; precipitate on SDS-PAGE, bands seen by Coomassie blue staining.
The target is the same in assay [2]. The experiment in a line: co-IP; muscle tissue lysate (IP Lysis/Wash Buffer) precipitated with anti-CCDC78 (AV53233) cross-linked with DSS to magnetic beads (Pierce Crosslink Magnetic IP/Co-IP kit); precipitate immunoblotted; nonspecific IgG as negative control.

Amino acid sequences for entries named in this document (tags omitted). Residues count along the entry.
UniProt A2IDD5: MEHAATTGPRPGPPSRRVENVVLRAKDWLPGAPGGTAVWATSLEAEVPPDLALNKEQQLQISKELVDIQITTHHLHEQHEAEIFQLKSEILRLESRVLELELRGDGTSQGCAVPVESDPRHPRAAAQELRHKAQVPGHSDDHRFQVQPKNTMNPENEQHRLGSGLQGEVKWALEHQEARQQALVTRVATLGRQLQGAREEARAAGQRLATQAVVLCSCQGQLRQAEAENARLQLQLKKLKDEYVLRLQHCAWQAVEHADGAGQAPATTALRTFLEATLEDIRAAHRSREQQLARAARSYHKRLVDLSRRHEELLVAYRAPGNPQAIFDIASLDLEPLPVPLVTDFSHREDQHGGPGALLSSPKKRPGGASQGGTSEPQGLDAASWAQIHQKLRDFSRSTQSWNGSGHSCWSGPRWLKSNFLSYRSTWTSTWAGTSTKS
UniProt P35609: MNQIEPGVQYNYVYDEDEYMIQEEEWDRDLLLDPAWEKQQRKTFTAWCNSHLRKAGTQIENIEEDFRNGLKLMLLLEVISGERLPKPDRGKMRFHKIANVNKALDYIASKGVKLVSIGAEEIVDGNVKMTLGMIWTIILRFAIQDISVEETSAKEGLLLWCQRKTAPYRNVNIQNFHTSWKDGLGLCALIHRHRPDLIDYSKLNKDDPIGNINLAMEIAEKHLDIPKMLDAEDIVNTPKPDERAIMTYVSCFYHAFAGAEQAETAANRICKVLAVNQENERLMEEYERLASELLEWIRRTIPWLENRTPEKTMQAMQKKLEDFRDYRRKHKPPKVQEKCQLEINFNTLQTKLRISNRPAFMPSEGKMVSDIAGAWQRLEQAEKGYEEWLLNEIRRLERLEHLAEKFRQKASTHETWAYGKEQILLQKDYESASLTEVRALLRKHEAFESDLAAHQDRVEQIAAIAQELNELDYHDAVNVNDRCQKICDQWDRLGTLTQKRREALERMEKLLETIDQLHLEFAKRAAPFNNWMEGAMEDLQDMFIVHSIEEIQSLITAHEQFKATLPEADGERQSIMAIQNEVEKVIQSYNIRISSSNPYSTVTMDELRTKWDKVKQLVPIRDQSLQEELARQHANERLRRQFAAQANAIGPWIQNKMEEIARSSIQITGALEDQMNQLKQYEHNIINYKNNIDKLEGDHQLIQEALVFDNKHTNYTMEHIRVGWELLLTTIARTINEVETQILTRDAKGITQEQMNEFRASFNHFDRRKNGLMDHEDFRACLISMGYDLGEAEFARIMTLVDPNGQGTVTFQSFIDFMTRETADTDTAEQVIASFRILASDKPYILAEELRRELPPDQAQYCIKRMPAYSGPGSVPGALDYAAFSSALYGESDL
UniProt P31415, residues 35-396: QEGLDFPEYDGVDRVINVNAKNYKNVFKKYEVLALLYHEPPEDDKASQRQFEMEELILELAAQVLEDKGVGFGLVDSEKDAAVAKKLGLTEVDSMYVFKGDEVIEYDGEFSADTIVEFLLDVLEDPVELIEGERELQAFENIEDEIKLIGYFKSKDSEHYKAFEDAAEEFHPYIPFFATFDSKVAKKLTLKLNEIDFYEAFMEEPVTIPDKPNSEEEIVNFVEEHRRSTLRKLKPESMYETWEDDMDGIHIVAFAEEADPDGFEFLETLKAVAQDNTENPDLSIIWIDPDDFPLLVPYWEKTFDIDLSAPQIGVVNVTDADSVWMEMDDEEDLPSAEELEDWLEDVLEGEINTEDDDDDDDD
UniProt P12882: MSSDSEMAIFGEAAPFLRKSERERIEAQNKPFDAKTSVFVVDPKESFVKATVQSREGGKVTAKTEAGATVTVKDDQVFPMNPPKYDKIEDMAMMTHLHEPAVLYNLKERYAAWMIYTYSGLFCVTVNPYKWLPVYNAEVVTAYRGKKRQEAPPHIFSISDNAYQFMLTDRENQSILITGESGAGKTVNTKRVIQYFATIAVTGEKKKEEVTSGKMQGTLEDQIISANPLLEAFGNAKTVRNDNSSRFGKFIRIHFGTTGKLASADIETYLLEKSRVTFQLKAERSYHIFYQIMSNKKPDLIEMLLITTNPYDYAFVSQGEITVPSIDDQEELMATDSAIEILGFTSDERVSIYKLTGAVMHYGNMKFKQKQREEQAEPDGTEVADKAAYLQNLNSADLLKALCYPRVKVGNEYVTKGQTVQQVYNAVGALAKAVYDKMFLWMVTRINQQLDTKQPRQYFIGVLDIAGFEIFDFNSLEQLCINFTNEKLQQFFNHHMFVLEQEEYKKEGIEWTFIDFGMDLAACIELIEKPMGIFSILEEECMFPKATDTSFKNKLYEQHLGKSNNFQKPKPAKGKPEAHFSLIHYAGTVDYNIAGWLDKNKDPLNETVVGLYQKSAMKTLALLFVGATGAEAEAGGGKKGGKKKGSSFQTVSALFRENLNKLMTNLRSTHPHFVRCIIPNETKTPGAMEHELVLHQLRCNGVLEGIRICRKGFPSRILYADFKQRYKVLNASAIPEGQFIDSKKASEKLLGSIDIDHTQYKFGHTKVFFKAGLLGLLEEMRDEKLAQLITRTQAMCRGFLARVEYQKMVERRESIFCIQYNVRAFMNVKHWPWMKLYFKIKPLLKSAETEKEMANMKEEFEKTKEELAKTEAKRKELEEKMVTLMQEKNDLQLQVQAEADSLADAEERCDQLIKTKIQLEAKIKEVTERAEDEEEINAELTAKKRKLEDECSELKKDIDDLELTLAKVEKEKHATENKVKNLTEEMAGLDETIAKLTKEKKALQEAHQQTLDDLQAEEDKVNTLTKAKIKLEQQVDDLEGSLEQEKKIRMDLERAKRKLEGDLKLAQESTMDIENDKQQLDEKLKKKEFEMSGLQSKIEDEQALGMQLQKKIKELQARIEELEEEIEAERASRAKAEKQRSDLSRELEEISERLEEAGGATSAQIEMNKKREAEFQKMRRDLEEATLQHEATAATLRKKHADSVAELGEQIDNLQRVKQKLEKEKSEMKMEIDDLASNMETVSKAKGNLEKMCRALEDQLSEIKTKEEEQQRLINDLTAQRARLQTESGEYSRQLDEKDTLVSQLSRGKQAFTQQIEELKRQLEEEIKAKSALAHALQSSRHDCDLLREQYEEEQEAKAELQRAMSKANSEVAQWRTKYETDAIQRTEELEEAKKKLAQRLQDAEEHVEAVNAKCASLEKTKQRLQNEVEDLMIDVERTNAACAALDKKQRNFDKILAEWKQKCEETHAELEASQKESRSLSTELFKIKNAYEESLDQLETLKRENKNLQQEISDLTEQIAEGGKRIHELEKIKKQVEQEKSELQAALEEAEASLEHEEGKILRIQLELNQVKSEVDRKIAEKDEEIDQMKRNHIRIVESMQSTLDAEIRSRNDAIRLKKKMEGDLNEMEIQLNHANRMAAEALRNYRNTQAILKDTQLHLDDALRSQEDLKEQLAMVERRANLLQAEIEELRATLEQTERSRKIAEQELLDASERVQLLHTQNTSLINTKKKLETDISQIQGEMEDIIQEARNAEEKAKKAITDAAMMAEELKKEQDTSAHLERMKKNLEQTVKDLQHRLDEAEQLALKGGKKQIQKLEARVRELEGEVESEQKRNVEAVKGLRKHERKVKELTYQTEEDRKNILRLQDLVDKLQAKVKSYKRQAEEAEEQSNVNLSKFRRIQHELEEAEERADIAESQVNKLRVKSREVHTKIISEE
UniProt O14983: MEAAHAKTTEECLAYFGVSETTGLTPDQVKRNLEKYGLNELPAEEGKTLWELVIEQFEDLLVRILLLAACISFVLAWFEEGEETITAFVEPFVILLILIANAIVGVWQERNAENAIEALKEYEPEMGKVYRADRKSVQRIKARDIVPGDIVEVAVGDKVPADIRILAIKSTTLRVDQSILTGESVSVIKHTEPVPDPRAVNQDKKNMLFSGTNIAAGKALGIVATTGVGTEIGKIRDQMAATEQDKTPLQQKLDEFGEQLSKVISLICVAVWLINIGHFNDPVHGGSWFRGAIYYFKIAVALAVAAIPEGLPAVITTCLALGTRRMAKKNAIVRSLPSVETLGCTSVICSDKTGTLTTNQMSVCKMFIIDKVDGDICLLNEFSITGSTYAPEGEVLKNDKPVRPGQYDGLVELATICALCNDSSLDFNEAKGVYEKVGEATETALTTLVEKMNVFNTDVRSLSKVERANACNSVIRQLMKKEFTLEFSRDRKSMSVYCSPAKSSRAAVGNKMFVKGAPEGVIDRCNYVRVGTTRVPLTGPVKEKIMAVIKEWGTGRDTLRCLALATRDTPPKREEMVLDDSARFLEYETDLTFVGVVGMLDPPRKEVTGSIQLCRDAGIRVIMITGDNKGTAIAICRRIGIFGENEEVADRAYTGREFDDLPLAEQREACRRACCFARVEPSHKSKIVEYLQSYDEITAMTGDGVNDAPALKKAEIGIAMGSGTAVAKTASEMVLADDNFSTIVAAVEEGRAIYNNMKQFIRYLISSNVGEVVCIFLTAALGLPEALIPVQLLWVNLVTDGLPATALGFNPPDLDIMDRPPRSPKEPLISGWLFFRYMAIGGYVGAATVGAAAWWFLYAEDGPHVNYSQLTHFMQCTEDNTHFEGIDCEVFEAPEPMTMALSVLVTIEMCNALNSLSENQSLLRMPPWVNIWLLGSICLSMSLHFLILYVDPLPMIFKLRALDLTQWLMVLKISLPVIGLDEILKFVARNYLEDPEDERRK

This is an account of results in article PMC11394131.

Results are given in words; binding and its absence hold for the method and conditions named. Binding seen in cells or lysates may run through a third protein. Some binding calls cover weakened binding; strength is not graded here.

In the case of RyR1 (from UniProt P21817 1-5038), the binding result in assay [1] and in assay [2] was “no binding” each time.
As for “alpha-actinin-2 (ACTN2) (from UniProt P35609 1-894)”, the binding entry in assay [2] is listed as “binds”.
In the case of “calsequestrin1 (from UniProt P31415 35-396)”, the binding result in assay [2] is reported as “binds”.
Still for that read-out and setting: with “myosin-1 (MYH1) (from UniProt P12882 1-1939)” the entry was “binds”; with “sarco-endoplasmic reticulum calcium ATPase1 (from UniProt O14983 1-1001)”, “binds”.
